Laboratory results as given in PubChem BioAssay AID504333 (National Center for Advancing Translational Sciences (NCATS), 2011).
The whole screen tested about 360,000 compounds, of which about 16,000 (4.4%) were called active. This list was built around the results that the source calls inconclusive (neither active nor inactive); the mix of calls is not that of the screen. Calls come from the whole dose curve; as a rule, active = well fitted inhibition curve with a large enough effect; inconclusive = small, poorly fitted or top-dose-only effect; inactive = no such curve, though single readings can be large or run the other way. Potencies beside an inconclusive call are fits to weak or partial responses and may not hold up.

The compounds below were run against Bromodomain adjacent to zinc finger domain protein 2B (Homo sapiens) (UniProt Q9UIF8) (assay: qHTS Assay for Inhibitors of BAZ2B). Details: AlphaScreen BAZ2B-H3K14Ac peptide displacement; series mostly up to 114 µM.
Procedure, shortened: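 Complex of BAZ2B and biotin-H3K14Ac (50 nM apiece) forms over 30 min at RT, then faces library compounds up to 110 uM for another 30 min; AlphaScreen beads added, 20 min dark incubation, luminescence read.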
Note: nearly all actives have a fitted effect of over 60% in size.
Potency is the fitted concentration of half-maximal effect; tags give direction and shape of the fitted curve.

Sequence of UniProt Q9UIF8 (Q9UIF8 whole entry, looked up, the tested form may be a part): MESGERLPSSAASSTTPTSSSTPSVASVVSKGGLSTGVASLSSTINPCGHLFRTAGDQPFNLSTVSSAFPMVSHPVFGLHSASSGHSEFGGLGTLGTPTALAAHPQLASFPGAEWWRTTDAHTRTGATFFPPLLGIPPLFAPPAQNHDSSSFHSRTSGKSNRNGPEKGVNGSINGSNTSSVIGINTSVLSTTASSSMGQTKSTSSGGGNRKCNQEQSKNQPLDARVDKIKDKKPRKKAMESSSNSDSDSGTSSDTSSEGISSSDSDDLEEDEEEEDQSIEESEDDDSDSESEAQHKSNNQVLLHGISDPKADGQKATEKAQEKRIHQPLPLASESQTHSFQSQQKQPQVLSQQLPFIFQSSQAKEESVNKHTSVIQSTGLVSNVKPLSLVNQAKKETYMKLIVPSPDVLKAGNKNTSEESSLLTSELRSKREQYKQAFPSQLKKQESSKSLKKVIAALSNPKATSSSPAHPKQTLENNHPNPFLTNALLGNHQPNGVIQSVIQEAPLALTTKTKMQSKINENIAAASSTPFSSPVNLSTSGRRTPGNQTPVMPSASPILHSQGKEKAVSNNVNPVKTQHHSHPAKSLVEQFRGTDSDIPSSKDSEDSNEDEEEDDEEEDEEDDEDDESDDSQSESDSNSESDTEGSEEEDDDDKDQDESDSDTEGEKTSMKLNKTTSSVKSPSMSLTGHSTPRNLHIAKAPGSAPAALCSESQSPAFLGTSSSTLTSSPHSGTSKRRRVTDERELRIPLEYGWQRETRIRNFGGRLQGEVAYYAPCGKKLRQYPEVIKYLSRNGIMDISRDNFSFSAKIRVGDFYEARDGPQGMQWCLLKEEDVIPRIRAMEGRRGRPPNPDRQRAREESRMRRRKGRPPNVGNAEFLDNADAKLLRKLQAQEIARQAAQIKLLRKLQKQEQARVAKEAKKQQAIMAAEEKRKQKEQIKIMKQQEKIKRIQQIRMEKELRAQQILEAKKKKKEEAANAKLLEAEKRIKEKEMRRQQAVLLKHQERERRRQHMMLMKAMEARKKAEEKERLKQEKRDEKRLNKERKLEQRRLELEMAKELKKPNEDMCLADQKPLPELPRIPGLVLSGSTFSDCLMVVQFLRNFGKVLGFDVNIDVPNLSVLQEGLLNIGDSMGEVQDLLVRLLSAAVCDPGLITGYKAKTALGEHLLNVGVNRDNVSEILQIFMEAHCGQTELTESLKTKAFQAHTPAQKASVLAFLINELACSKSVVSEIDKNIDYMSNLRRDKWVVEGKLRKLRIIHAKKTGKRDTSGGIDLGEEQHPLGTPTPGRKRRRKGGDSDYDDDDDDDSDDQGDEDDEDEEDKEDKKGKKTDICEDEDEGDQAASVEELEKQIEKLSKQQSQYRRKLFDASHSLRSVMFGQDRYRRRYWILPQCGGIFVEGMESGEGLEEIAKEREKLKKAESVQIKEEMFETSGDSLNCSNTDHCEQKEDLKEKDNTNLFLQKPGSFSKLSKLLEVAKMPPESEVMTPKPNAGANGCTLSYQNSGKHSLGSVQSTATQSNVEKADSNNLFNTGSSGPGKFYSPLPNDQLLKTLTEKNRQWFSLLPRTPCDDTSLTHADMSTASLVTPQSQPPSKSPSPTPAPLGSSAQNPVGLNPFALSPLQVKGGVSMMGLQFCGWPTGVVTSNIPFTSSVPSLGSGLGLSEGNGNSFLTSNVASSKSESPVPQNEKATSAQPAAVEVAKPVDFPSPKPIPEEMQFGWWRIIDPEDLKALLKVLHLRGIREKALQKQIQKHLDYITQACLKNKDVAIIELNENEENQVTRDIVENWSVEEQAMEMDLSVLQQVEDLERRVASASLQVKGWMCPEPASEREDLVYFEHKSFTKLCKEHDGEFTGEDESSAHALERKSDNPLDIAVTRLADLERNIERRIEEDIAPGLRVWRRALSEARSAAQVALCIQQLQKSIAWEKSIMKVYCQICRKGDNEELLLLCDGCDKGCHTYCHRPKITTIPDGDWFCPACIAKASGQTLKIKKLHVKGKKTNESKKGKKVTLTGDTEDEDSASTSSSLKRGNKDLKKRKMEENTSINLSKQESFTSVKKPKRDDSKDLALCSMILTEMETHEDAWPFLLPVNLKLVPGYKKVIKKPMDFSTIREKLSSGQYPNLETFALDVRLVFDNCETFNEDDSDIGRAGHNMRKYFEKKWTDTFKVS

SMILES	Potency
O=C(CSc1nnc(-c2ccco2)n1Cc1ccco1)NCc1cccs1	inactive
COc1ccc(C2NN=C(c3c[nH]c4ccccc34)C2O)cc1 (stereo not drawn)	inconclusive: 50.1 µM [inhibitor, partial curve]
Cc1ccc(C(=O)C2=C(O)C(=O)N(Cc3ccco3)C2c2cccc(Cl)c2)o1 (stereo not drawn)	inconclusive: 44.7 µM [inhibitor, partial curve]
CCOC(=O)NC(=O)COC(=O)c1ccc(Sc2ncn[nH]2)c([N+](=O)[O-])c1	active: 79.4 µM
CCOc1ccccc1N1CCN(C(=O)/C=C/c2cccc([N+](=O)[O-])c2)CC1	inconclusive: 70.8 µM [inhibitor, single point]
COc1ccc(Cl)cc1NC(=O)Nc1cnccn1	inconclusive: 56.2 µM [inhibitor, partial curve]
Cc1cccc(-c2nn3c(=O)cc(CN4CCN(C(=O)/C=C/c5ccccc5)CC4)nc3s2)c1	inactive
O=[N+]([O-])c1ccc(CSc2nnc(Cc3ccccc3)n2-c2ccc(F)cc2)cc1	inconclusive: 39.8 µM [inhibitor, partial curve]
N#CC[C@H](c1ccccc1)N1CCN(Cc2ccccc2)CCC1=O	inactive
CN(CC(=O)Nc1ccc(F)cc1)c1ccc(S(=O)(=O)N2CCCCC2)cc1[N+](=O)[O-]	inconclusive: 39.8 µM [inhibitor, full curve, poor fit]
C#CCNC(=O)C1=C[C@H](c2cn(C(C)=O)c3ccccc23)C[C@H](OCc2ccc(CO)cc2)O1	inconclusive: 79.4 µM [inhibitor, single point]
CCOC(=O)C1CCN(C(C)=C2C(=O)c3ccccc3C2=O)CC1	inconclusive: 3.98 µM [inhibitor, partial curve, poor fit]
CCCn1c(SCC(=O)Nc2ccccc2-c2ccccc2)nnc1-c1ccoc1C	inconclusive: 44.7 µM [inhibitor, partial curve]
CCc1nnc(NC(=O)Cc2ccc(OCc3c(C)noc3C)cc2)s1	inconclusive: 89.1 µM [inhibitor, single point]
Cc1cc(/C=C(\C#N)C(=O)O)c(C)n1-c1ccc(Br)cc1	inconclusive: 50.1 µM [inhibitor, partial curve]
O=C(NNC(=O)c1ccc(Br)s1)c1csc(N2CCOCC2)n1	inconclusive: 79.4 µM [inhibitor, single point]
O=C(CCc1c[nH]c2ccccc12)NCCc1ccc2c(c1)OCCO2	inconclusive: 89.1 µM [inhibitor, single point]
Clc1cncc(Cl)c1NNc1c2ccccc2nc2ccccc12	inconclusive: 79.4 µM [inhibitor, single point]
COc1cccc(CN2CCN(C(=O)c3cccc4ccccc34)CC2)c1OC	active: 56.2 µM
CC(=O)c1c(C)c[nH]c1C	inconclusive: 89.1 µM [inhibitor, single point]
Cc1nnc(SCC2=C(C(=O)O)N3C(=O)C(NC(=O)c4cccc(F)c4F)C3SC2)s1 (stereo not drawn)	inconclusive: 89.1 µM [inhibitor, single point]
O=S(=O)(NNc1ccc(Cl)nn1)c1ccc(F)cc1	inconclusive: 89.1 µM [inhibitor, single point]
O=C(Oc1ccc(C(=S)N2CCOCC2)cc1)c1ccccc1	inactive

SMILES	Potency
COc1ccc(Cn2c(C(=O)O)c(CNCCc3ccco3)c3ccc(OC)cc32)cc1	inconclusive: 50.1 µM [inhibitor, partial curve]
Cc1ccccc1OCC(=O)OC(C)CN1CCN(C)CC1 (stereo not drawn)	inconclusive: 89.1 µM [inhibitor, single point]
COc1cc(OC)cc(C(=O)N[C@H](C(=O)OCC(=O)Nc2cccnc2Cl)C(C)C)c1	inactive
O=C(NCC(c1cccnc1)N1CCc2ccccc21)c1cccc(Br)c1 (stereo not drawn)	inconclusive: 89.1 µM [inhibitor, single point]
c1ccc(OCCOCCN2CCN(C(c3ccccc3)c3ccccc3)CC2)cc1	active: 50.1 µM
COc1ccc2[nH]c(C)c(CCN(Cc3cccs3)C(=S)Nc3ccccc3)c2c1	inconclusive: 44.7 µM [inhibitor, partial curve]
NC(=O)C1(N2CCCCC2)CCN(c2nc(-c3ccccc3)cs2)CC1	inconclusive: 50.1 µM [inhibitor, partial curve]
C=CCn1c(SCC(=O)NC2CC2)nnc1-c1ccccn1	inconclusive: 79.4 µM [inhibitor, partial curve]
O=C1c2ccccc2-c2ccc(C(=O)N3CCCCC3)cc21	inconclusive: 89.1 µM [inhibitor, single point]
COc1cc(NC(=S)N2c3ccccc3CC2C)cc(OC)c1 (stereo not drawn)	inconclusive: 50.1 µM [inhibitor, partial curve]
Cc1ccc(/C=C/C(=O)NCc2ccco2)o1	inconclusive: 79.4 µM [inhibitor, single point]
CN(C(=O)CSc1nnc(NC(=O)Nc2ccccc2)s1)c1ccccc1	inactive
COC(=O)CCCC1=CC2=C(c3ccccc3)C(=O)C(C)(OC(=O)C3CCCC3)C(=O)C2=CN1c1ccccc1 (stereo not drawn)	inconclusive: 44.7 µM [inhibitor, partial curve]
C=C(C)C(=O)NC1=NN(c2ccccc2)C(=O)C1	inconclusive: 56.2 µM [inhibitor, partial curve]
OCCC1CCCCN1CC(O)COCc1ccc(Cl)cc1 (stereo not drawn)	inconclusive: 79.4 µM [inhibitor, single point]
CCc1ccc(-n2nc3cc(C)c(NC(=O)c4cc(OC)cc(OC)c4)cc3n2)cc1	inconclusive: 89.1 µM [inhibitor, single point]
Cc1ccc(S(=O)(=O)N2CCN(C(=O)CCn3nc(C)c(C)c3C)CC2)cc1C	inactive
Cc1ccc(C(=O)N2CCN(C)CC2)cc1S(=O)(=O)N1CCCCCC1	inactive
O=C(NCc1ccco1)c1cccc(C(F)(F)F)c1	inconclusive: 89.1 µM [inhibitor, single point]
O=C(Nc1ccc(N2CCOCC2)c2nonc12)C1CCCC1	inconclusive: 70.8 µM [inhibitor, single point]
CC(C)CCn1nnnc1C(c1ccc(N(C)C)cc1)N1CCN(C(=O)c2ccco2)CC1 (stereo not drawn)	inconclusive: 56.2 µM [inhibitor, single point]
CCc1ccccc1N(CC(=O)NC1CCCCC1)C(=O)CNC(=O)c1ccco1	inactive
O=C1N/C(=C/c2ccco2)C(=O)N1Cc1ccccc1F	inconclusive: 79.4 µM [inhibitor, single point]

SMILES	Potency
COc1cccc(NS(=O)(=O)c2ccc3[nH]cc(C(=O)NCCC(C)C)c(=O)c3c2)c1	inconclusive: 89.1 µM [inhibitor, single point]
OCCNCCSc1ccc(Cl)cc1	active: 56.2 µM
C#CCOCCOCCOCCNc1nc(N2CCN(C(=O)CCCCCCCCCCNC(=O)Cn3cc(C[C@@H](C)O)nn3)CC2)nc(N2CCN(C(=O)CCCCCCCCCCNC(=O)[C@H](CCCCN)n3cc(C[C@@H](C)CC)nn3)CC2)n1	inconclusive: 44.7 µM [inhibitor, partial curve]
CCOc1cc(C(=O)Nc2ccc(-c3nc4ccccc4s3)cc2Cl)cc(OCC)c1OCC	inconclusive: 56.2 µM [inhibitor, partial curve, poor fit]
COc1ccc(/C=N/Nc2cc(C)nc3c(C)cccc23)cc1	inconclusive: 56.2 µM [inhibitor, partial curve]
COc1ccc(C(O)P(=O)(OCC(C)C)c2ccc(N(C)C)cc2)c(OC)c1 (stereo not drawn)	inactive
CC(=O)c1cc(-c2ccccc2)n(CCC(=O)NC(C)c2ccccc2)c1C (stereo not drawn)	inconclusive: 79.4 µM [inhibitor, partial curve]
COc1ccc(C(C)=O)cc1CSc1nc2cc(C(=O)O)ccc2c(=O)n1Cc1ccccc1	active: 50.1 µM
CCN(CC)C(=O)CSc1nc(-c2ccc(C)cc2)nc2c1COC(C)(C)C2	inactive
O=C(c1ccccc1)c1cccs1	inactive
CC1CCCCN1CCCNC(=O)c1ccc2nc(N3CCCCC3)sc2c1 (stereo not drawn)	inconclusive: 100 µM [inhibitor, single point]
CN1C/C(=C/c2cccs2)C(=O)/C(=C\c2cccs2)C1	inconclusive: 63.1 µM [inhibitor, single point]
Cc1cc(NC(=O)C23CC4CC(C2)CC(n2cnc([N+](=O)[O-])n2)(C4)C3)no1	inactive
CCn1ccnc1CN(C)Cc1nc(-c2ccccc2)no1	inconclusive: 89.1 µM [inhibitor, single point]
Cc1ccc(N(C(=O)CNC(=O)c2ccco2)C(C(=O)NCC2CCCO2)c2ccccc2)c(C)c1 (stereo not drawn)	inactive
Cc1[nH]c2ccccc2c1/C=N/Nc1nc2ccccc2[nH]1	active: 28.2 µM
COc1ccc(OC)c(N2Cc3cc(C)c(C)cc3C2)c1	inconclusive: 79.4 µM [inhibitor, single point]
Oc1ccccc1-c1nc2ccccc2nc1-c1ccccc1	inconclusive: 44.7 µM [inhibitor, partial curve]
CCN(CC)S(=O)(=O)c1cccc(NC(=O)CNC2CCCCCC2)c1	active: 79.4 µM
COc1ccc(-c2cc(C(=O)Nc3cccc(O)c3)on2)cc1OC	inconclusive: 50.1 µM [inhibitor, partial curve]
COCCNC(=S)N(C)C1(c2ccccc2Cl)CCCCC1=O (stereo not drawn)	inactive
CC(=O)N(Cc1ccccc1)c1ncc2c(n1)c(=O)c(C#N)c1ccccn12	inconclusive: 100 µM [inhibitor, single point]
